The source of these data is PubChem BioAssay AID588689 (Southern Research Specialized Biocontainment Screening …, 2011).

Each structure is given as a SMILES string. Some of the results follow. Further columns of the screen follow, without active or inactive calls.

In this assay the target is Genome polyprotein (Dengue virus type 2 (strain 16681-PDK53)) (UniProt P29991). The experiment in a line: flavivirus cap methylation enzyme inhibition – biochemical, confirmation dose response, primary screen (AID 588689). To be noted: Dengue-2 NS5 methyltransferase capping enzyme assay, measured here: pilot screen replicate inhibition, at 25 µM, stronger effect = higher value.
Compound `Cc1cc(C)cc(OCCOc2cccc(C=C3C(=O)NC(=O)NC3=O)c2)c1` registered an inhibition of 17.7%.

Take `CCOC(=O)c1c(-n2c(C)cc(C=C3C(=O)NC(=O)NC3=O)c2C)sc2c1CCCC2`: the inhibition was 30.7%. As for `Cc1ccc(N2C(=O)NC(=O)/C(=C/c3ccc(OC(=O)c4cccs4)cc3)C2=O)cc1`, the figure is 33.4%. As for `Oc1ccc(/C=N/NP(=S)(c2ccccc2)c2ccccc2)c(O)c1O`, the figure is 11.8%.
